Source: PMC4569408
No constants are given. Whether binding was seen depends on the method and setting. In cells and extracts the contact can be indirect. Some entries that bind do so weakly or less than the wild type. Tags and fused reporters may be left off the sequences shown.

Protein sequences, listed by entry. Tags and fused reporters are not part of them.
UniProt Q43125: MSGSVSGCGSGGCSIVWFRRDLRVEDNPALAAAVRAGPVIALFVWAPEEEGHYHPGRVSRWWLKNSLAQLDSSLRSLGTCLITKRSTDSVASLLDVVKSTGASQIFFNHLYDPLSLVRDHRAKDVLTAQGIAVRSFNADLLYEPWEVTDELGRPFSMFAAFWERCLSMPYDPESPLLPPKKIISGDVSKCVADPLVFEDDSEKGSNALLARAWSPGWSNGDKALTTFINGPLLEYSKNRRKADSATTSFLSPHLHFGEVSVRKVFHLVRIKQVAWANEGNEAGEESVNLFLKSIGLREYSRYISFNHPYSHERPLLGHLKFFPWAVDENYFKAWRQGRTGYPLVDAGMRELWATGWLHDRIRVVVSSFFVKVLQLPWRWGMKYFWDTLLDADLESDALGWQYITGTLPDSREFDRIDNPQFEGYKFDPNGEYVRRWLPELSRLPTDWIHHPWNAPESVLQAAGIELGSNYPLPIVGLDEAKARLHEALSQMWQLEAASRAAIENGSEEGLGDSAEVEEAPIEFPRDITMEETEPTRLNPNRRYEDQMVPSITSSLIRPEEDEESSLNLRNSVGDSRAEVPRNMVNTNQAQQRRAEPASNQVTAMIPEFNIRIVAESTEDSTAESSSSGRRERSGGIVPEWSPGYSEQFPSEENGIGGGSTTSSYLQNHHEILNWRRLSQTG

B1: cryptochrome 2, Q96524 1-612 (protein)
chain: MKMDKKTIVWFRRDLRIEDNPALAAAAHEGSVFPVFIWCPEEEGQFYPGRASRWWMKQSLAHLSQSLKALGSDLTLIKTHNTISAILDCIRVTGATKVVFNHLYDPVSLVRDHTVKEKLVERGISVQSYNGDLLYEPWEIYCEKGKPFTSFNSYWKKCLDMSIESVMLPPPWRLMPITAAAEAIWACSIEELGLENEAEKPSNALLTRAWSPGWSNADKLLNEFIEKQLIDYAKNSKKVVGNSTSLLSPYLHFGEISVRHVFQCARMKQIIWARDKNSEGEESADLFLRGIGLREYSRYICFNFPFTHEQSLLSHLRFFPWDADVDKFKAWRQGRTGYPLVDAGMRELWATGWMHNRIRVIVSSFAVKFLLLPWKWGMKYFWDTLLDADLECDILGWQYISGSIPDGHELDRLDNPALQGAKYDPEGEYIRQWLPELARLPTEWIHHPWDAPLTVLKASGVELGTNYAKPIVDIDTARELLAKAISRTREAQIMIGAAPDEIVADSFEALGANTIKEPGLCPSVSSNDQQVPSAVRYNGSKRVKPEEEEERDMKKSRGFDERELFSTAESSSSSSVFFVSQSCSLASEGKNLEGIQDSSDQITTSLGKNGCK

Legend:
[1] = biological target: T1, SPA1-HA (Arabidopsis thaliana) (UniProt Q9SYX2); test: co-IP; as a1, but 4-day-old dark-grown seedlings kept in darkness (no blue light)
T1 sequence: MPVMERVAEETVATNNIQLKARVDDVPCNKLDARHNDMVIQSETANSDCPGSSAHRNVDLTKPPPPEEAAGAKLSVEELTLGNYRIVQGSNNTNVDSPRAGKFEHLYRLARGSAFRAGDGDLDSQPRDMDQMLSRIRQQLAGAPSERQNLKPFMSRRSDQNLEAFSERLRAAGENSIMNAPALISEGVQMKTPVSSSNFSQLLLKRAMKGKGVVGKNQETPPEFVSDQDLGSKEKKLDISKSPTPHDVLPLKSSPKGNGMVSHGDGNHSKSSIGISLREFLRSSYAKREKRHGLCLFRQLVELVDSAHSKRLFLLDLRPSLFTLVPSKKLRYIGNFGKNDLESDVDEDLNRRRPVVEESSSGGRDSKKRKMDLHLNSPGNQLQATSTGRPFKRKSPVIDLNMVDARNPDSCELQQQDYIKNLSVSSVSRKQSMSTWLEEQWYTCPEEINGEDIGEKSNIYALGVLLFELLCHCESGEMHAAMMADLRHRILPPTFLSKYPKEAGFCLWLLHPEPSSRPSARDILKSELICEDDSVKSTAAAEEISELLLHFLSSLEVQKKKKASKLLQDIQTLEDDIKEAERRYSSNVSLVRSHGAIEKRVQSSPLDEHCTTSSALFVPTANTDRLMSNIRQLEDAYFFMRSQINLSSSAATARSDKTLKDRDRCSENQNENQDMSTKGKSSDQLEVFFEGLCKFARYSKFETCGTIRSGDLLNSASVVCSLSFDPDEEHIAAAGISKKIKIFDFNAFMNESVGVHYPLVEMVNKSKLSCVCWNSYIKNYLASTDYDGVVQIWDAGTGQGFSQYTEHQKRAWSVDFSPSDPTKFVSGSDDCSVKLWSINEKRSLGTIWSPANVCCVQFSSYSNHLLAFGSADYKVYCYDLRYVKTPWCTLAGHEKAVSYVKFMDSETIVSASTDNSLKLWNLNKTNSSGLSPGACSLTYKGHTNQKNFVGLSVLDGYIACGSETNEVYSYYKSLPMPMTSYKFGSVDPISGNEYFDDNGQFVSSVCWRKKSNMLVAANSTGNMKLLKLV

[2] = biological target: T2, SPA2-HA (Arabidopsis thaliana) (UniProt Q9T014); test: as above
T2 sequence: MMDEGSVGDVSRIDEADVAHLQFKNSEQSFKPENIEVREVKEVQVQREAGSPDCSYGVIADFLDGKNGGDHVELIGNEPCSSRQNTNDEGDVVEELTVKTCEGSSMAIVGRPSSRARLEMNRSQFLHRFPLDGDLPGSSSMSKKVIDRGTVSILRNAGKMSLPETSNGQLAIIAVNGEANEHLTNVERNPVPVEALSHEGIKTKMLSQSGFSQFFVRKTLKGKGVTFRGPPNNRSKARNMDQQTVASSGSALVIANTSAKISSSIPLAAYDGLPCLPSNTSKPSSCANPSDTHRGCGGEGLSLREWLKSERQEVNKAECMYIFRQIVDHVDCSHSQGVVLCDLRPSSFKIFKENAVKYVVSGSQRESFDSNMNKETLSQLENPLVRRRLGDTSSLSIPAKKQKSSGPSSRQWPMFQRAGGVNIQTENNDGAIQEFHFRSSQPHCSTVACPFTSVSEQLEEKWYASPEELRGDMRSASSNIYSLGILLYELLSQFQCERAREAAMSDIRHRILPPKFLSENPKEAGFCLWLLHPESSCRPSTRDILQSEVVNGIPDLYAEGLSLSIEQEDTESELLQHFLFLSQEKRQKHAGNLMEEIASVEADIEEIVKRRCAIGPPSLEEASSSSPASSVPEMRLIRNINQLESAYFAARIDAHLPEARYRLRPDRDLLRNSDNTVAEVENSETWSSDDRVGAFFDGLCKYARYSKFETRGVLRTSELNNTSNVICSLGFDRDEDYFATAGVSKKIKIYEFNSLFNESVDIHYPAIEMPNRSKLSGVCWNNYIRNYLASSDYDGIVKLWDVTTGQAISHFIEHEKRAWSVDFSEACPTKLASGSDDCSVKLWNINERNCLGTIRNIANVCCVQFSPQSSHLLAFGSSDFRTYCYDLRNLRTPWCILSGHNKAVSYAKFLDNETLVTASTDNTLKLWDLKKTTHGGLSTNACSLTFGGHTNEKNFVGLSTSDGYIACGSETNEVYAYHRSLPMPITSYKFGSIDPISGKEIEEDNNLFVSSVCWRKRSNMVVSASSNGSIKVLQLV

[3] = biological target: T1, SPA1-HA (Arabidopsis thaliana); test: co-IP; SPA-HA precipitated with α-HA beads (μMACS) from extracts of 4-day-old dark-grown seedlings transferred to 50 μmol m^-2 s^-1 blue light (1 h for cry1, 5 min for cry2; time course in S2 Fig); seedlings pre-infiltrated with MG132 and clasto-Lactacystin β-lactone; five times more extract for SPA2-HA than for SPA1-HA; cry1 and cry2 detected by blot
[4] = biological target: T2, SPA2-HA (Arabidopsis thaliana); test: as above
[5] = biological target: T3, SPA2-HA (Arabidopsis thaliana), Q9T014; test: as above; settings: remark: other sources report otherwise
T3 chain: T2 sequence

[6] = biological target: T3, SPA2-HA (Arabidopsis thaliana), Q9T014; test: co-IP; as a1, but 4-day-old dark-grown seedlings kept in darkness (no blue light); settings: remark: other sources report otherwise

| Molecule | binding [1] | binding [2] | binding [3] | binding [4] | binding [5] | binding [6] |
| --- | --- | --- | --- | --- | --- | --- |
| cryptochrome 1 (from UniProt Q43125 1-681) | binds weakly | binds weakly | binds | binds |  |  |
| cryptochrome 2 (from UniProt Q96524 1-612) | no binding (condition: in darkness (without blue light)) |  | binds |  |  |  |
| B1 |  |  |  |  | no binding | no binding |
